Experimental data reported in patent publication US10299477B2 (priority 2015, dated 2019).

What was measured:
Type in all cases: in vivo
[1] = test system: Blumeria graminis f sp. hordei; test: Test Example D: Powdery mildew on barley; conditions: for Test D control value (powdery mildew on barley) / Test D (control value class): 250 ppm spray; for Test D control value (powdery mildew on barley): preventive, control value class; for Test D (control value class): powdery mildew on barley; for Test D (control value class, powdery mildew on barley): in vivo
From the text: [Test Example D] Powdery Mildew on Barley
After the sprayed dilutions were dried, conidia of Blumeria graminis f sp. hordei were inoculated to the plants by shaking off.

Alternaia brassicicola = test: Test Example C: Alternaria sooty spot on cabbage; conditions: for Test C control value (Alternaria sooty spot on cabbage) / Test C (control value class): 250 ppm spray; for Test C control value (Alternaria sooty spot on cabbage): preventive, control value class; for Test C (control value class): Alternaria sooty spot on cabbage; for Test C (control value class, Alternaria sooty spot on cabbage): in vivo
From the text: [Test Example C] Alternaria Sooty Spot on Cabbage
Seeds of a test plant (cabbage variety: Shikidori) were planted followed by cultivating until the cotyledons extended.

Plasmopara viticola = test: Test Example G: Downy mildew on vine; conditions: for Test G control value (downy mildew on vine): 250 ppm spray (2.5 ml/pot), preventive, control value class; for Test G control value (downy mildew on vine) / Test G (control value class): 7-10 days after inoculation; for Test G (control value class): downy mildew on vine, Plasmopara viticola, 250 ppm spray; for Test G (control value class, downy mildew on vine): 250 ppm, sprayed 2.5 ml/pot before inoculation, evaluated 7-10 days after inoculation
From the text: [Test Example G] Downy Mildew on Vine
Seeds of a test plant (grape variety: Neomuscat) were planted followed by cultivating until three to four first leaves appeared. […] After the sprayed dilutions were dried, a zoosporangia suspension (1-2×10^4 zoosporangia/ml) of Plasmopara viticola was inoculated to the plants by spraying.

Botrytis cinerea = test: Test Example B: Gray mold on tomato; conditions: for Test B control value (gray mold on tomato) / Test B (control value class): 250 ppm spray; for Test B control value (gray mold on tomato): preventive, control value class; for Test B (control value class): gray mold on tomato, Botrytis cinerea; for Test B (control value class, gray mold on tomato): in vivo
From the text: [Test Example B] Gray Mold on Tomato
Seeds of a test plant (tomato variety: Oogata Fukuju) were planted followed by cultivating until three to five first leaves (true leaves) appeared.

Puccinia recondita = test: Test Example E: Brown rust on wheat; conditions: for Test E control value (brown rust on wheat) / Test E (control value class): 250 ppm spray; for Test E control value (brown rust on wheat): preventive, control value class; for Test E (control value class): brown rust on wheat, Puccinia recondita; for Test E (control value class, brown rust on wheat): in vivo
From the text: [Test Example E] Brown Rust on Wheat

| SMILES | Test D control value (powdery mildew on barley) [1] | Test C control value (Alternaria sooty spot on cabbage) (Alternaia brassicicola) | Test G control value (downy mildew on vine) (Plasmopara viticola) | Test B control value (gray mold on tomato) (Botrytis cinerea) | Test E control value (brown rust on wheat) (Puccinia recondita) | Test D (control value class, powdery mildew on barley) [1] | Test C (control value class, Alternaria sooty spot on cabbage) (Alternaia brassicicola) | Test G (control value class, downy mildew on vine) (Plasmopara viticola) | Test B (control value class, gray mold on tomato) (Botrytis cinerea) | Test E (control value class, brown rust on wheat) (Puccinia recondita) | other results |
| --- | --- | --- | --- | --- | --- | --- | --- | --- | --- | --- | --- |
| Cn1c(-c2c(F)cccc2F)c(-c2cc(OCC3CCCC3)ccc2Cl)ccc1=O [Compound 324] | L (L shows 50% or less of control values) | H (H shows more than 50% of control values) | L (L shows 50% or less of control values) | L (L shows 50% or less of control values) | L (L shows 50% or less of control values) | – | – | – | – | – | – |
| Cn1c(-c2c(F)cccc2F)c(-c2cccc(Cl)c2)ccc1=O [Compound 188] | H (H shows more than 50% of control values) | H (H shows more than 50% of control values) | H (H shows more than 50% of control values) | H (H shows more than 50% of control values) | H (H shows more than 50% of control values) | – | – | – | – | – | – |
| CCn1c(-c2c(F)cccc2F)c(-c2cc(F)ccc2Cl)ccc1=O [Compound 358] | H (H shows more than 50% of control values) | H (H shows more than 50% of control values) | H (H shows more than 50% of control values) | H (H shows more than 50% of control values) | H (H shows more than 50% of control values) | – | – | – | – | – | – |
| COc1cc(OC)c(Cl)c(-c2ccc(=O)n(/C=C\F)c2-c2c(F)cc(F)cc2F)c1 [Compound 380] | – | – | – | – | – | – | – | – | – | – | Test D (control value class) [1]: H (H shows more than 50% of control values); Test C (control value class) (Alternaia brassicicola): H (H shows more than 50% of control values); Test G (control value class) (Plasmopara viticola): H (H shows more than 50% of control values); Test B (control value class) (Botrytis cinerea): H (H shows more than 50% of control values); Test E (control value class) (Puccinia recondita): H (H shows more than 50% of control values) |
| CCn1c(-c2c(F)cccc2F)c(-c2cc(OC)ccc2Cl)cc(OC)c1=O [Compound 371] | L (L shows 50% or less of control values) | H (H shows more than 50% of control values) | L (L shows 50% or less of control values) | H (H shows more than 50% of control values) | H (H shows more than 50% of control values) | – | – | – | – | – | – |
| CCCn1c(-c2c(F)cccc2F)c(-c2cc(OC)ccc2Cl)cc(Cl)c1=O [Compound 400] | – | – | – | – | – | – | – | – | – | – | Test D (control value class) [1]: H (H shows more than 50% of control values); Test C (control value class) (Alternaia brassicicola): H (H shows more than 50% of control values); Test G (control value class) (Plasmopara viticola): H (H shows more than 50% of control values); Test B (control value class) (Botrytis cinerea): H (H shows more than 50% of control values); Test E (control value class) (Puccinia recondita): H (H shows more than 50% of control values) |
| CCOc1cc(F)c(-c2c(-c3cccc(OC)c3Cl)cc(Br)c(=O)n2C)c(F)c1 [Compound 670] | – | – | – | – | – | L (L shows 50% or less of control values) | H (H shows more than 50% of control values) | H (H shows more than 50% of control values) | H (H shows more than 50% of control values) | H (H shows more than 50% of control values) | – |
| COc1ccc(Cl)c(-c2cc(Br)c(=O)n(C)c2-c2c(F)cc(F)cc2F)c1 [Compound 725] | – | – | – | – | – | H (H shows more than 50% of control values) | H (H shows more than 50% of control values) | L (L shows 50% or less of control values) | H (H shows more than 50% of control values) | H (H shows more than 50% of control values) | – |
| CCn1c(-c2c(F)cc(F)cc2F)c(-c2ccccc2F)cc(F)c1=O [Compound 568] | – | – | – | – | – | H (H shows more than 50% of control values) | H (H shows more than 50% of control values) | H (H shows more than 50% of control values) | H (H shows more than 50% of control values) | H (H shows more than 50% of control values) | – |
| CCOC(=O)COc1ccc(Cl)c(-c2ccc(=O)n(C)c2-c2c(F)cccc2F)c1 [Compound 308] | L (L shows 50% or less of control values) | L (L shows 50% or less of control values) | L (L shows 50% or less of control values) | H (H shows more than 50% of control values) | H (H shows more than 50% of control values) | – | – | – | – | – | – |
| O=c1c(Cl)cc(-c2ccc(Cl)cc2Cl)c(-c2c(F)cccc2F)n1CC(F)F [Compound 347] | H (H shows more than 50% of control values) | H (H shows more than 50% of control values) | L (L shows 50% or less of control values) | H (H shows more than 50% of control values) | H (H shows more than 50% of control values) | – | – | – | – | – | – |
| CCn1c(-c2c(F)cccc2F)c(-c2cccc(C#N)c2)cc(Cl)c1=O [Compound 353] | L (L shows 50% or less of control values) | L (L shows 50% or less of control values) | L (L shows 50% or less of control values) | H (H shows more than 50% of control values) | L (L shows 50% or less of control values) | – | – | – | – | – | – |
| COCCOc1ccc(Cl)c(-c2ccc(=O)n(C)c2-c2c(F)cccc2F)c1 [Compound 240] | H (H shows more than 50% of control values) | H (H shows more than 50% of control values) | H (H shows more than 50% of control values) | H (H shows more than 50% of control values) | H (H shows more than 50% of control values) | – | – | – | – | – | – |
| CCOc1cc(F)c(-c2c(-c3cccc(F)c3C)ccc(=O)n2CC)c(F)c1 [Compound 698] | – | – | – | – | – | H (H shows more than 50% of control values) | H (H shows more than 50% of control values) | H (H shows more than 50% of control values) | H (H shows more than 50% of control values) | H (H shows more than 50% of control values) | – |
| CCOc1cc(F)c(-c2c(-c3ccc(F)cc3Cl)cc(Cl)c(=O)n2CC)c(F)c1 [Compound 595] | – | – | – | – | – | H (H shows more than 50% of control values) | H (H shows more than 50% of control values) | H (H shows more than 50% of control values) | H (H shows more than 50% of control values) | H (H shows more than 50% of control values) | – |
